# Measured values reported in paper PMC4336329 (PLoS ONE, 2015).
# The whole screen tested about 310,000 compounds, of which about 2,200 (0.71%) showed an effect of 50% or more. The effect is printed as a negative number. This is one part of the list. Where a SMILES comes first, the peptide text is derived from it. [ ]: non-standard residue; d: D form. pGlu = O=C1CC[CH](C(=O)O)N1
# Target: human ether-à-go-go-related gene (hERG) potassium channel (human, UniProt Q12809)
# Assay: primary screen, population patch clamp on CHO cells stably expressing hERG
# Sequence of human ether-à-go-go-related gene (hERG) potassium channel (Q12809 whole entry, looked up): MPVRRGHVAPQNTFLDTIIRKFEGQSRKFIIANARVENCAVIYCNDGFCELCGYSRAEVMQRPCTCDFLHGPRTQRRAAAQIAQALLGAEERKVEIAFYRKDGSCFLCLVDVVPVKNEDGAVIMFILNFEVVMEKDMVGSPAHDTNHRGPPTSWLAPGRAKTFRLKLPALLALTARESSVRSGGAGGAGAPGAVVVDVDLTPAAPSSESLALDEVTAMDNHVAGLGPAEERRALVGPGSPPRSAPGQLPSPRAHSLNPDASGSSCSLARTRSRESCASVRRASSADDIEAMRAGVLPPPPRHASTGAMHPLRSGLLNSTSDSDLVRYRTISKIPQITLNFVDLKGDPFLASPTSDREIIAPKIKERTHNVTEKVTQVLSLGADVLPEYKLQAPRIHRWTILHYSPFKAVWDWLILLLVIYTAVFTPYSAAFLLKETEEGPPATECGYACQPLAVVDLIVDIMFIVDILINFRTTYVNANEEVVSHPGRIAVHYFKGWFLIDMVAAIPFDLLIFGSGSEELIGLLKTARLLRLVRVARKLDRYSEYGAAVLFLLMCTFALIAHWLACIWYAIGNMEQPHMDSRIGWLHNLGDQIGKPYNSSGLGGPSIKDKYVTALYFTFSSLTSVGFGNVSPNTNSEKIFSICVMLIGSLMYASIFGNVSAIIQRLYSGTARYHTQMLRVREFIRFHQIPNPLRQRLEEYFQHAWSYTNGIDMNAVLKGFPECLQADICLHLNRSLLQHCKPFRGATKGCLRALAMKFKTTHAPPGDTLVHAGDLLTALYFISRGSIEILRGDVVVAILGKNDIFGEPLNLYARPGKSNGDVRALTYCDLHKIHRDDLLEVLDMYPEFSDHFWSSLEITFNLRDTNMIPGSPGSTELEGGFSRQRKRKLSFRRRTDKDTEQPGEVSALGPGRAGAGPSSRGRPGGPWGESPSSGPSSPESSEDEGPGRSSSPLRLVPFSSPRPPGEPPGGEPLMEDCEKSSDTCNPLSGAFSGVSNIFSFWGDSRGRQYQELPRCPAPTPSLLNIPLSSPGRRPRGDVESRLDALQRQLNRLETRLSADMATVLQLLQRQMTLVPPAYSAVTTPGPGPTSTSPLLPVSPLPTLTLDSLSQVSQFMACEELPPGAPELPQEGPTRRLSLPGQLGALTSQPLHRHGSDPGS
row,Compound,"hERG current change (%, negative = inhibition) at 1uM"
1,CCCc1nnc(SCC(=O)N(CC)CC)n1CC1CCCO1 (stereo not drawn),13.1%
2,Cc1cc(CN2C(=O)c3ccccc3C2=O)cc(N2CCOCC2)c1,13.4%
3,CCN(Cc1ccccc1)S(=O)(=O)c1ccc(S(=O)(=O)N2CCN(CCC#N)CC2)cc1,3.94%
4,CCc1cccc2c(SC(C)C(=O)NCC3CCCO3)nc(-c3ccccc3)nc12 (stereo not drawn),9.01%
5,Cc1ccc(S(=O)(=O)CC(O)COc2ccc(C#N)cc2)cc1 (stereo not drawn),-18%
6,N#Cc1ccc(-c2cn3c(n2)SCC3)cc1,7.45%
7,Cc1cc(NC(=O)CSc2nc3ccsc3c(=O)n2CCCC(=O)NCCc2ccccc2)no1,5.94%
8,CCC(=O)c1cn(Cc2ccccc2C#N)c2ccccc12,9.19%
9,Cc1c(C2(O)CCCCC2)[nH]c2ncccc12,15%
10,O=C(O)c1ccc(/C=N/NC(=O)c2cc3c(ccc4ccccc43)o2)cc1,8.02%
11,COc1ccc(C)cc1NC(=O)c1ccc2c(c1)OCO2,0.84%
12,Cc1cc2c(c(=O)n1C)C(C(C)C)C(C#N)=C(N)O2 (stereo not drawn),12.8%
13,Cc1[nH]nc2c1C1(CCOCC1)C(C#N)=C(N)O2,-4.73%
14,NNC(=O)c1nn(-c2ccc(Cl)cc2)ccc1=O,-6.81%
15,O=C1NN=C(c2ccc(Cl)cc2)CC1c1c[nH]c2ccccc12 (stereo not drawn),12.4%
16,Cc1ccc(Nc2cc(C)nc(NCc3ccccc3)n2)cc1,5.11%
17,Cc1cccc2[nH]c(CN(C)C(=O)CC3C(=O)NCCN3CC(C)(C)C)nc12 (stereo not drawn),9.04%
18,CSc1n[nH]c(NC(=O)c2c(-c3c(Cl)cccc3Cl)noc2C)n1,9.6%
19,O=C(NCCc1ccc(Cl)cc1)c1nnc(Cc2ccc(Cl)cc2)o1,15.7%
20,CC(=O)N(CCC(Cc1ccccc1)c1ccco1)Cc1ccco1 (stereo not drawn),2.35%
21,O=C1c2ccccc2C(Nc2ccc(Cl)cc2)N1CCN1CCOCC1 (stereo not drawn),2.05%
22,CCOC(=O)c1ccc(NC(=S)NNC(=O)c2cc(-c3cccnc3)nc3ccccc23)cc1,15.9%
23,C=CCn1c(O)c(N=NC(=S)Nc2ccccc2F)c2cc(S(=O)(=O)N3CCOCC3)ccc21,9.01%

row,Compound,"hERG current change (%, negative = inhibition) at 1uM"
1,Cc1ccc(C)c(SCC(=O)Nc2nnc(-c3ccccc3)o2)c1,13.9%
2,CCN(CC(=O)Nc1ccc(NC(C)=O)cc1)C(=O)/C=C/c1ccccc1,7.96%
3,CCOC(=O)C1=C(COC(=O)c2ccc([N+](=O)[O-])o2)NC(=O)NC1C (stereo not drawn),2.11%
4,CCOc1cc(NC(=S)NCc2ccco2)c(OCC)cc1NC(=O)C1CC1,11.8%
5,COc1ccc(N(CC(=O)Nc2cccnc2)S(C)(=O)=O)cc1,-9.54%
6,N=c1nc(-c2ccccc2)ccn1O,9.31%
7,O=C(Nc1ccc(Cl)cc1)N1CCC(c2ccccc2)C1 (stereo not drawn),-1.01%
8,COc1cccc(NC(=O)CN2C(=O)NC(C)(c3ccc(C)cc3)C2=O)c1 (stereo not drawn),4.84%
9,CCOc1ccc(S(=O)(=O)Nc2ccc(C(=O)NNC(=O)c3ccncc3)cc2)cc1,15.8%
10,O=C(/C=C/c1cccs1)N1CCN(c2ccc(O)cc2)CC1,-0.394%
11,CCN(C(=O)COC(=O)c1c2c(nc3ccccc13)/C(=C/c1ccccc1)CC(C)C2)C1CCS(=O)(=O)C1 (stereo not drawn),-3.95%
12,O=C(CN1C(=O)NC2(CCCCC2)C1=O)Oc1ccc2c(C(F)(F)F)cc(=O)oc2c1,14.9%
13,CCC(C)NCCOCCOc1ccc(C)cc1OC.O=C(O)C(=O)O (stereo not drawn),12.5%
14,CCCCOc1ccc(N(CC(=O)NC2CCCC2)C(=O)CCC(=O)Nc2ccccn2)cc1,17.1%
15,COc1cc2[nH]c(=S)nc(NCC3CCCO3)c2cc1OC (stereo not drawn),1.63%
16,CCCc1nnc(NC(=O)CCC(=O)NCCc2ccc(Cl)cc2)s1,8.03%
17,COc1cccc(/C=N/NC(=O)c2cc3c(OC)cccc3[nH]2)c1OC,14.5%
18,CCOc1cc(CNCCN2CCOCC2)ccc1OCc1ccccc1Cl.Cl,-8.01%
19,CN(C)C(Cc1ccccc1)C(=O)c1c[nH]c2ccccc12.Cl (stereo not drawn),7.43%
20,CCN(c1ccc(OC)cc1)S(=O)(=O)c1nnc(NC(=O)C(C)C)s1,11.6%
21,Cc1nn(Cc2ccc(Cl)cc2)c(C)c1NC(=O)CSc1n[nH]c(C)c1[N+](=O)[O-],7.18%
22,Cc1ccc(Cl)cc1N1CCN(Cc2cc(=O)n3ccsc3n2)CC1,11%
23,CC(C)CC(NC(=O)C1CCC(=O)N1)C(=O)NC(CC(C)C)C(=O)N1CCCC1C(N)=O (stereo not drawn) ([pGlu]LLP-NH2; configuration not given here),15.1%

row,Compound,"hERG current change (%, negative = inhibition) at 1uM"
1,Cc1nn(C)c(Cl)c1/C=N/OC(=O)c1ccccc1,12.7%
2,COc1ccc(O)c(CN2CCC(n3nccc3NC(=O)c3ccccc3Cl)CC2)c1,-15.4%
3,N/C(=N\OC(=O)c1ccoc1)c1ccc(Br)cc1,0.729%
4,Br.N=c1n(CC(=O)c2ccc(Br)s2)c2ccccc2n1Cc1ccccc1,-13.1%
5,Cc1cc(Cl)c(S(=O)(=O)Nc2cccc(O)c2)cc1OCC(N)=O,7.41%
6,CC1CC(C)CN(S(=O)(=O)c2cccc3cccnc23)C1 (stereo not drawn),12.6%
7,O=C(OCc1csc(-c2ccccc2)n1)c1ccc(O)cc1,10.1%
8,CN(C)CCNC(=O)C1CCCNC1=O (stereo not drawn),1.68%
9,COc1ccc(CCC(=O)NNC(=O)Nc2cccc(Cl)c2)cc1,8.85%
10,CC(NC(=O)Cn1cc2c(n1)CCCCC2)c1ccccc1 (stereo not drawn),5.16%
11,CN1/C(=C\P(=O)(N(C)C)N(C)C)C(C)(C)c2ccccc21,6.33%
12,CCOC(=O)c1c(C)n(C)c2ccc(OCC(O)CN(CC)CC)cc12.Cl (stereo not drawn),8.37%
13,O=C(NNC(=O)c1ccc([N+](=O)[O-])cc1)NC1CCCCC1,12.1%
14,Fc1ccc(/C=C\c2nccc3c2[nH]c2ccccc23)cc1,7.56%
15,Cc1nnc(SCCN2CCOCC2)n1C.O=C(O)C(=O)O,9.89%
16,Cc1ccc(CNC(=O)C2CC(c3cc(C(F)(F)F)cc(C(F)(F)F)c3)=NO2)o1 (stereo not drawn),3.67%
17,Fc1ccc(-c2cc(C(F)(F)C(F)F)[nH]n2)cc1,11.5%
18,CCCCC#Cc1ccc2c(c1)COc1c3ccccc3nn1-2,12%
19,Cc1ccc(C(C(=O)NC2CCCCC2)N(Cc2ccccc2)C(=O)Cc2c[nH]c3ccccc23)o1 (stereo not drawn),-4.09%
20,CC1=C(C(=O)Nc2ccc(C)cc2)C(c2cccs2)NC(=S)N1 (stereo not drawn),-0.101%
21,COc1ccc(NC(=O)NC(C)c2ccc3c(c2)OCO3)c(OC)c1 (stereo not drawn),15.2%
22,CC(CCc1ccccc1)NC(=O)C1CC1 (stereo not drawn),7.47%
23,COc1ccc(S(=O)(=O)N[C@@H](CSCc2ccccc2)C(=O)O)cc1,13%

row,Compound,"hERG current change (%, negative = inhibition) at 1uM"
1,COc1ccccc1CN1CC(C(=O)NC2CCCCC2)CC1=O (stereo not drawn),1.27%
2,Cc1cnn(-c2cc(N/N=C/c3ccccc3)ncn2)c1,6.76%
3,Cc1ccc(C(=O)NC2CC(C)(C)NC(C)(C)C2)cc1S(=O)(=O)N1CCCCC1,-4.33%
4,CCOc1cc(/C=N/Nc2cc(C)nc(-n3nc(C)cc3C)n2)ccc1O,5.21%
5,Nc1ccc(-c2nc3cc(N)ccc3n2CCO)cc1,5.63%
6,CCCCNC(=O)c1ccc(NC(C)=O)c(Cl)c1,19.3%
7,Cc1cccc(NC(=O)c2ccc([N+](=O)[O-])o2)c1C,0.41%
8,O=c1[nH]c(=S)[nH]c2sc3c(c12)CCCCCC3,14.5%
9,N#Cc1ccc(-c2csc(NNC(=O)c3ccccc3)n2)cc1,5.53%
10,Clc1ccccc1-c1nc2nc3ccccc3nc2n1-c1ccc2c(c1)OCO2,10.9%
11,CCCCNC(=O)CCn1nc(-c2ccccc2)c2ccccc2c1=O,9.77%
12,CCOc1ccc(-c2nnc3ccc(SCC(=O)NCc4ccco4)nn23)cc1,-3.19%
13,CCCCS(=O)CC(COC)OC(=O)c1ccccc1 (stereo not drawn),1.26%
14,CCOC(=O)c1c(NC(=O)c2ccoc2C)sc(C(=O)N(C)C)c1C,2.26%
15,COc1ccc(C(=O)NCc2nnc(SCCOc3ccccc3)n2C)cc1,4.9%
16,Cc1cccc(CNC(=O)c2ccccc2N)c1,1.03%
17,COc1ccc(CC(=O)Nc2ccc(-c3nc4cc(C)ccc4o3)c(O)c2)cc1OC,6.8%
18,COc1ccc(-n2c(=S)[nH]c3cc(C(=O)NCCCN4CCCC4=O)ccc3c2=O)c(OC)c1,9.44%
19,CCN(CC)CC(=O)Nc1c(C)cc(C(C)(C)C)cc1C.Cl,4.29%
20,CC1(C)CC(=O)C=C(c2ccc3c(c2)OCO3)C1,8.75%
21,CC1CCN(C(=O)c2[nH]cnc2C(=O)N[C@@H](Cc2ccccc2)C(=O)OC(C)(C)C)CC1,2.28%
